This is a noisy data set.
Assay: amyloid nucleation score relative to library mode (yeast Sup35 reporter selection) (log enrichment difference); higher = more amyloid nucleation; sequences are the first 22 residues of the Bri2 peptide extended by up to 12 random residues
Settings: random library (experiment): 1;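 active = nucleation score significantly above 0 at FDR 0.05; inactive = not significantly above 0 or absent from output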
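Further: [psi-pin-] Saccharomyces cerevisiae expressing SupN fusions, induced by 100 µM Cu2SO4, selected 7 d at 30 °C without adenine and uracil, scored by deep sequencing of output versus input.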

Sequence	amyloid nucleation score
EASNCFAIRHFENKFAVETLICTVLSLRKCLVHS	0.674
EASNCFAIRHFENKFAVETLICTVLTCPD	inactive
EASNCFAIRHFENKFAVETLICTVLTGVKGGYYA	0.405
EASNCFAIRHFENKFAVETLICTVLTLGNRASR	inactive
EASNCFAIRHFENKFAVETLICTVMHGYCGMNGQ	3.85
EASNCFAIRHFENKFAVETLICTVPSELFTHSYY	inactive
EASNCFAIRHFENKFAVETLICTVQAV	inactive
EASNCFAIRHFENKFAVETLICTVQGTRGMALCV	inactive
EASNCFAIRHFENKFAVETLICTVQSGSSKSRFR	0.588
EASNCFAIRHFENKFAVETLICTVRAKSYMSVSS	inactive
EASNCFAIRHFENKFAVETLICTVREKHQARCEI	inactive
EASNCFAIRHFENKFAVETLICTVRGGCCRRSPT	3.04
EASNCFAIRHFENKFAVETLICTVRSHLRSGRKW	2.28
EASNCFAIRHFENKFAVETLICTVS	7.88
EASNCFAIRHFENKFAVETLICTVTGNDCNNFRG	-0.187
EASNCFAIRHFENKFAVETLICTVTWLEAFQVRT	inactive
EASNCFAIRHFENKFAVETLICTVTYGVMDDVWR	inactive
EASNCFAIRHFENKFAVETLICTVVGEPCAGEEA	1.28
EASNCFAIRHFENKFAVETLICTVVMICQISAFN	inactive
EASNCFAIRHFENKFAVETLICTVWCPYFYYSER	8.07

Sequence	amyloid nucleation score
EASNCFAIRHFENKFAVETLICTVWMHP	inactive
EASNCFAIRHFENKFAVETLICTVYYVFGMRLVL	inactive
EASNCFAIRHFENKFAVETLICTWALVHGVVGRW	inactive
EASNCFAIRHFENKFAVETLICTWHASKPRAYHL	inactive
EASNCFAIRHFENKFAVETLICTWLKRLSDAWAK	1.4
EASNCFAIRHFENKFAVETLICTWLWRVAKCERL	inactive
EASNCFAIRHFENKFAVETLICTWRRL	inactive
EASNCFAIRHFENKFAVETLICTWSEDTDKGLTG	inactive
EASNCFAIRHFENKFAVETLICTWSMNYVSQMSR	inactive
EASNCFAIRHFENKFAVETLICTWSQIYSRSRRG	2.18
EASNCFAIRHFENKFAVETLICTY	inactive
EASNCFAIRHFENKFAVETLICTYDVCHKRRMRQ	4.3
EASNCFAIRHFENKFAVETLICTYFVLRPYGHLV	inactive
EASNCFAIRHFENKFAVETLICTYGLSRHSSVSS	inactive
EASNCFAIRHFENKFAVETLICTYGQWL	1.28
EASNCFAIRHFENKFAVETLICTYKANSWCLWAA	inactive
EASNCFAIRHFENKFAVETLICTYKFSTWINQLD	inactive
EASNCFAIRHFENKFAVETLICTYKSMQCSIVEW	inactive
EASNCFAIRHFENKFAVETLICTYMDSYRMFRSW	inactive
EASNCFAIRHFENKFAVETLICTYQTSMDRYGMS	0.944

Sequence	amyloid nucleation score
EASNCFAIRHFENKFAVETLICTYREFIGPGLRW	inactive
EASNCFAIRHFENKFAVETLICTYRMWKSESMMG	2.75
EASNCFAIRHFENKFAVETLICTYS	inactive
EASNCFAIRHFENKFAVETLICTYSHHLDIVANS	inactive
EASNCFAIRHFENKFAVETLICTYSSN	inactive
EASNCFAIRHFENKFAVETLICTYVAWWHSVTKH	inactive
EASNCFAIRHFENKFAVETLICTYVGMGSMRLEL	inactive
EASNCFAIRHFENKFAVETLICTYVVGCSTPTCI	0.00985
EASNCFAIRHFENKFAVETLICTYVVLRESVKSD	4.86
EASNCFAIRHFENKFAVETLICTYWSDERAPGAM	0.768
EASNCFAIRHFENKFAVETLICVAALPSLAPSSR	4.59
EASNCFAIRHFENKFAVETLICVAAQSV	-0.0479
EASNCFAIRHFENKFAVETLICVAAWE	inactive
EASNCFAIRHFENKFAVETLICVACCWP	7.75
EASNCFAIRHFENKFAVETLICVACGY	3.64
EASNCFAIRHFENKFAVETLICVACMRVHEVAVP	2.52
EASNCFAIRHFENKFAVETLICVACPGTMVCVQL	6.4
EASNCFAIRHFENKFAVETLICVACRLYTGAF	0.087
EASNCFAIRHFENKFAVETLICVAD	inactive

Same assay, conditions: random library (experiment): 2

Sequence	amyloid nucleation score
EASNCFAIRHFENKFAVETLICTVLTNHYRMR	-0.199
EASNCFAIRHFENKFAVETLICTVLYDSDSEALG	6.27
EASNCFAIRHFENKFAVETLICTVM	8.75
EASNCFAIRHFENKFAVETLICTVMEPFT	inactive
EASNCFAIRHFENKFAVETLICTVNVCCYFIAFC	inactive
EASNCFAIRHFENKFAVETLICTVSFFCYFYP	inactive
EASNCFAIRHFENKFAVETLICTVSFRDTVYRRL	2.24
EASNCFAIRHFENKFAVETLICTVYSIGCSCSMH	6.3
EASNCFAIRHFENKFAVETLICTWCLYGYVKSMR	inactive
EASNCFAIRHFENKFAVETLICTWDGIRTSTNWR	1.34
EASNCFAIRHFENKFAVETLICTWERCTTKDAAG	inactive
EASNCFAIRHFENKFAVETLICTWRISG	-0.14
EASNCFAIRHFENKFAVETLICTWVDKY	2.16
EASNCFAIRHFENKFAVETLICTYAVWMRVVSKW	0.644
EASNCFAIRHFENKFAVETLICTYCVAILLLVIF	inactive
EASNCFAIRHFENKFAVETLICTYEVTFYPITAR	inactive
EASNCFAIRHFENKFAVETLICTYGECWVMVTDV	inactive
EASNCFAIRHFENKFAVETLICTYMDRVLSVSSN	inactive
EASNCFAIRHFENKFAVETLICTYMKSVVVTVLM	0.827
EASNCFAIRHFENKFAVETLICTYPYTVPEMRDV	-0.0677
EASNCFAIRHFENKFAVETLICTYRLFRQQVVNA	inactive
EASNCFAIRHFENKFAVETLICTYRSYSCDVAYL	2.77
EASNCFAIRHFENKFAVETLICTYSIHYCSSRLC	inactive
EASNCFAIRHFENKFAVETLICTYSVCCPGIGIG	3.75
EASNCFAIRHFENKFAVETLICTYVMYSVLGKLE	inactive
EASNCFAIRHFENKFAVETLICTYVSGYSRILVI	inactive
EASNCFAIRHFENKFAVETLICTYWYWQKAVWEG	-0.0296
EASNCFAIRHFENKFAVETLICVAASV	inactive

Same assay, conditions: random library (experiment): 3

Sequence	amyloid nucleation score
EASNCFAIRHFENKFAVETLICTVLWFLFNRGRW	inactive
EASNCFAIRHFENKFAVETLICTVQLKVVYRSGT	inactive
EASNCFAIRHFENKFAVETLICTVRVDGVALRAL	inactive
EASNCFAIRHFENKFAVETLICTVSMLRFVFRCR	5.03
EASNCFAIRHFENKFAVETLICTVSWSEMRDYFG	inactive
EASNCFAIRHFENKFAVETLICTVTLGLIHYAWW	inactive
EASNCFAIRHFENKFAVETLICTVVLYAMRGIQG	inactive
EASNCFAIRHFENKFAVETLICTVVSLRSPCARK	inactive
EASNCFAIRHFENKFAVETLICTVYFENG	6.13
EASNCFAIRHFENKFAVETLICTVYFSH	2.36
EASNCFAIRHFENKFAVETLICTW	inactive
EASNCFAIRHFENKFAVETLICTWGRGIRGAQLR	inactive
EASNCFAIRHFENKFAVETLICTWLTSLCFYSCK	inactive
EASNCFAIRHFENKFAVETLICTWLVGHIVIG	inactive
EASNCFAIRHFENKFAVETLICTWVCGARGTDGR	6.65
EASNCFAIRHFENKFAVETLICTWVRWSIGGTRQ	2.88

Sequence	amyloid nucleation score
EASNCFAIRHFENKFAVETLICTYAQELGDCHSS	inactive
EASNCFAIRHFENKFAVETLICTYGVVLGILSNA	inactive
EASNCFAIRHFENKFAVETLICTYHDYSH	inactive
EASNCFAIRHFENKFAVETLICTYLGLRCGVVVR	0.405
EASNCFAIRHFENKFAVETLICTYPAVIWEGVFG	inactive
EASNCFAIRHFENKFAVETLICTYQGRLRWAIIR	inactive
EASNCFAIRHFENKFAVETLICTYRAWDWGEEWS	inactive
EASNCFAIRHFENKFAVETLICTYRR	inactive
EASNCFAIRHFENKFAVETLICTYVAFEG	inactive
EASNCFAIRHFENKFAVETLICTYVISKYCHCVQ	5.26
EASNCFAIRHFENKFAVETLICTYVSACPFVSMY	inactive
EASNCFAIRHFENKFAVETLICTYWIRRVSWLRG	0.0651
EASNCFAIRHFENKFAVETLICTYYQTMGPYMLR	inactive
EASNCFAIRHFENKFAVETLICTYYVWSDYVLYV	inactive
EASNCFAIRHFENKFAVETLICVAALVGDGVVVR	inactive
EASNCFAIRHFENKFAVETLICVACEMTTARDKA	inactive
